In the supplement of paper PMC8728848:
This is one part of the list.

What was measured:
Assay in all cases: glycan array binding signal (z-score within array); higher = stronger binding
Settings in all cases: glycan notation: IUPAC condensed, linker removed
[1] = target: Fuc(a1-2)[GalNAc(b1-3)]Gal
Summary of the method: (§1)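 Columns mapping to the same glycan were averaged after glycan names were converted to IUPAC-condensed notation. The data come from 3228 arrays in the Consortium for Functional Glycomics database, limited to those with an available protein sequence. Binding is reported as a within-array Z-score averaged across arrays of one protein sequence and across linkers.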

Fuc(a1-3)GlcNAc = target: Fuc(a1-3)GlcNAc
Summary of the method: as §1

[2] = target: Fuc(a1-3)[Gal(b1-4)]Glc6S
Summary of the method: as §1

[3] = target: Fuc(a1-3)[Gal(b1-4)]GlcNAc
Summary of the method: as §1

[4] = target: Fuc(a1-3)[Gal(b1-4)]GlcNAc(b1-2)Man
Summary of the method: as §1

[5] = target: Fuc(a1-3)[Gal(b1-4)]GlcNAc(b1-2)Man(a1-3)[Fuc(a1-3)[Gal(b1-4)]GlcNAc(b1-2)Man(a1-6)]Man(b1-4)GlcNAc(b1-4)GlcNAc
Summary of the method: as §1

[6] = target: Fuc(a1-3)[Gal(b1-4)]GlcNAc(b1-2)Man(a1-3)[Fuc(a1-3)[Gal(b1-4)]GlcNAc(b1-2)Man(a1-6)]Man(b1-4)GlcNAc(b1-4)[Fuc(a1-6)]GlcNAc
Summary of the method: as §1

[7] = target: Fuc(a1-3)[Gal(b1-4)]GlcNAc(b1-3)Gal(b1-3)[Fuc(a1-4)]GlcNAc
Summary of the method: as §1

[8] = target: Fuc(a1-3)[Gal(b1-4)]GlcNAc(b1-3)Gal(b1-4)[Fuc(a1-3)]GlcNAc
Summary of the method: as §1

[9] = target: Fuc(a1-3)[Gal(b1-4)]GlcNAc(b1-3)Gal(b1-4)[Fuc(a1-3)]GlcNAc(b1-3)Gal(b1-4)[Fuc(a1-3)]GlcNAc
Summary of the method: as §1

[10] = target: Fuc(a1-3)[Gal(b1-4)]GlcNAc(b1-3)GalNAc
Summary of the method: as §1

[11] = target: Fuc(a1-3)[Gal(b1-4)]GlcNAc(b1-6)GalNAc
Summary of the method: as §1

[12] = target: Fuc(a1-3)[Gal(b1-4)]GlcNAc(b1-6)[Gal(b1-3)GlcNAc(b1-3)]Gal(b1-4)Glc
Summary of the method: as §1

[13] = target: Fuc(a1-3)[Gal(b1-4)]GlcNAc6S
Summary of the method: as §1

[14] = target: Fuc(a1-3)[Gal3S(b1-4)]Glc
Summary of the method: as §1

[15] = target: Fuc(a1-3)[Gal3S(b1-4)]GlcNAc
Summary of the method: as §1

[16] = target: Fuc(a1-3)[Gal3S(b1-4)]GlcNAc6S
Summary of the method: as §1

[17] = target: Fuc(a1-3)[GalNAc(b1-4)]GlcNAc
Summary of the method: as §1

[18] = target: Fuc(a1-3)[GalNAc(b1-4)]GlcNAc6S
Summary of the method: as §1

Fuc(a1-4)GlcNAc = target: Fuc(a1-4)GlcNAc
Summary of the method: as §1

Fuc(b1-3)GlcNAc = target: Fuc(b1-3)GlcNAc
Summary of the method: as §1

Gal(a1-2)Gal = target: Gal(a1-2)Gal
Summary of the method: as §1

Gal(a1-3)Gal = target: Gal(a1-3)Gal
Summary of the method: as §1

Gal(a1-3)Gal(b1-3)GlcNAc = target: Gal(a1-3)Gal(b1-3)GlcNAc
Summary of the method: as §1

[19] = target: Gal(a1-3)Gal(b1-3)GlcNAc(b1-2)Man
Summary of the method: as §1

[20] = target: Gal(a1-3)Gal(b1-3)GlcNAc(b1-2)Man(a1-3)[Gal(a1-3)Gal(b1-3)GlcNAc(b1-2)Man(a1-6)]Man(b1-4)GlcNAc(b1-4)GlcNAc
Summary of the method: as §1

[21] = target: Gal(a1-3)Gal(b1-3)GlcNAc(b1-3)GalNAc
Summary of the method: as §1

[22] = target: Gal(a1-3)Gal(b1-3)GlcNAc(b1-6)GalNAc
Summary of the method: as §1

[23] = target: Gal(a1-3)Gal(b1-3)[Fuc(a1-4)]GlcNAc(b1-2)Man(a1-3)[Gal(a1-3)Gal(b1-3)[Fuc(a1-4)]GlcNAc(b1-2)Man(a1-6)]Man(b1-4)GlcNAc(b1-4)GlcNAc
Summary of the method: as §1

Gal(a1-3)Gal(b1-4)Glc = target: Gal(a1-3)Gal(b1-4)Glc
Summary of the method: as §1

B1: CC1G-10077 (Coprinopsis cinerea), A8NDT7 (protein)
chain: MALNEGVYWIRNSRFTNKVLDLDAANVAKGTSILDFNEHGTFNENHNQLWIVERFQSRDTYLIRSVHSNLVLDLSQGLSANGTPILCWTQHGGTNQQWRIEWVKDDNKTPLYRIVSVATGTAISHNEDDSSAYTVAWSVDDGPKQLWSFDPFVTPLLYRLRVKSTSRVLDLAAASADNGTLALAWEQHTAITKRNQLWWLPYRSGAEEYTIQCLETSTVADLSGGNSGNGTPIYGWQSHGGRNQQWKFEPTSDSGDYYHIKNVEGGSVMDAYMNDSQKRVGGWSNNGGDNQKWLLDPLPSPGPGWVLIQNGGTGKFLCSTPSGDIGTADGPETVYDYSVQWRFIQREYTGVYHVVNRATGAYLRQIGTSMPSIGLAEENDDELKDWWMLETYDNSEIGLASIISRWTGNVLDHYGGVSVQALDNNTENSYRSWAIIPARDWLTSFSLVNGQGGLCLAAQYAREETRLSTTANVNDFHAQWVFRKPSGSSGYTIQNKYNNHYVGGTSARWELVVCCNKYFGIRNTSTQKYLAIEDGQVTFQDQDMTDRKQCWELCSGRATDTSGNDYDLIYMDDDLLEVMIPWVGDKQGDLKHYIEKRATKKPPKDKGGWQLPAAGLIKKPKFNDIRQLLQELIEQWEWDVVNEEREQIQTLVSIDEAEARRLLGRRPHPDIVAAYQRSRSSTLFRIDRQGYFNIAGDRYVNIQGQYGDDSYFHIALPVGVRFGREQIRRFLRDSLDRSTSVTITPTTCKPPSGGPDYNRDPDSDGDNSWIKWTIAVVGTSAIKHSEL
glycan array binding signal (z-score) [1]: 0.546 | glycan array binding signal (z-score) (Fuc(a1-3)GlcNAc): -0.513 | glycan array binding signal (z-score) [2]: -0.451 | glycan array binding signal (z-score) [3]: -0.488 | glycan array binding signal (z-score) [4]: -0.497 | glycan array binding signal (z-score) [5]: -0.467 | glycan array binding signal (z-score) [6]: -0.364 | glycan array binding signal (z-score) [7]: -0.51 | glycan array binding signal (z-score) [8]: -0.467 | glycan array binding signal (z-score) [9]: -0.524 | glycan array binding signal (z-score) [10]: -0.414 | glycan array binding signal (z-score) [11]: -0.37 | glycan array binding signal (z-score) [12]: 0.174 | glycan array binding signal (z-score) [13]: -0.392 | glycan array binding signal (z-score) [14]: -0.424 | glycan array binding signal (z-score) [15]: -0.473 | glycan array binding signal (z-score) [16]: -0.43 | glycan array binding signal (z-score) [17]: -0.4 | glycan array binding signal (z-score) [18]: -0.386 | glycan array binding signal (z-score) (Fuc(a1-4)GlcNAc): -0.457 | glycan array binding signal (z-score) (Fuc(b1-3)GlcNAc): -0.448 | glycan array binding signal (z-score) (Gal(a1-2)Gal): -0.544 | glycan array binding signal (z-score) (Gal(a1-3)Gal): -0.329 | glycan array binding signal (z-score) (Gal(a1-3)Gal(b1-3)GlcNAc): -0.108 | glycan array binding signal (z-score) [19]: 0.453 | glycan array binding signal (z-score) [20]: -0.139 | glycan array binding signal (z-score) [21]: -0.252 | glycan array binding signal (z-score) [22]: 1.19 | glycan array binding signal (z-score) [23]: 0.093 | glycan array binding signal (z-score) (Gal(a1-3)Gal(b1-4)Glc): -0.336
